Sequences and labels used below:
T1: UNK ZnF1-3 (human, UniProt Q9C0B0 31-174)
T1 sequence: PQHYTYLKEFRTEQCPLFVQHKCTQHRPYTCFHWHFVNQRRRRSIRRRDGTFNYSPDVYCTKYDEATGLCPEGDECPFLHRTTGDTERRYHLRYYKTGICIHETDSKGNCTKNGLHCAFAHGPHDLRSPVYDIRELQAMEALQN

B1: 15468751_15468984_1553_CDS_ENSG00000164985_ENST00000380738|human|control|control (ssRNA)
RNA: GGGAGUUCUACAGUCCGACGAUCUCCUUCACCAACCAAGAACAUGUUCUUAAACUUGUUAUACAACAUUGUAGACUUUUCCAUGAUUACCUGACUAACUUUGAAUCGCCGUAUUUUUUUCAGUGUAGUAAUCAUCUCUGUGUGCAACAGAGGAUUGAGCAUCA
B2: chr10:61147818:61147819:+_ENSMUSG00000020088_ENSMUST00000020285|mus_mus|FALSE|FALSE (ssRNA)
RNA: GGGAGUUCUACAGUCCGACGAUCUAGUCUGUCAUCUUUCAGCAUGUGAAGAAGAGUGGUUUUGCCCGCAUUGUCCAAUCCUAAGAAUACAAGUUUUCCAGAUUUCUUGUAGAGUCCUAGGAACUGGAGCACACUGCUGAAGCCCAACAGAGGAUUGAGCAUCA
B3: chr4:138441076:138441077:-_ENSG00000189184_ENST00000507846|hu_hu|motif|central (ssRNA)
RNA: GGGAGUUCUACAGUCCGACGAUCACACAACAAAUAAAACAAUUGCAGUAACAAAAAUAUGAUUUUAUAAAUGUUCUUAUACGGAAAAUAAAAGCAAAAAUAUGAGAUCAUGCACUGGAGACAAAAGCUAAAAAUGAAUAGUUACAACAGAGGAUUGAGCAUCA
B4: chr9:95013113:95013114:-_ENSG00000196305_ENST00000443024|hu_hu|hu_hu_hu_mus_False|68_68 (ssRNA)
RNA: GGGAGUUCUACAGUCCGACGAUCCUCAGUCAGAAAGGGCGUGUAAGGGGCCAUCAGUCUGCACAGAGAAAGCAGAACACUGAACAGUGUCUCCAGAGCCAUGACACAGUCUUCCACCCCACUCUCACCCUUUAACCUCCUCCUCAACAGAGGAUUGAGCAUCA
B5: 107143695_107143815_2784_3pUTR_ENSG00000125266_ENST00000245323|human|control|control (ssRNA)
RNA: GGGAGUUCUACAGUCCGACGAUCGGAAUGAUGUUGUUUUUCCCAGAAGUAGCUGUCCAAUUUGUUUUUUUAAGCGCUGAGCAUUGGGACCACUUAAUUGCCACAAAUGAAUUUCACAUCUUCUGGUGUGUACUGUGUGCAACCCAACAGAGGAUUGAGCAUCA
B6: chr9:95013113:95013114:-_ENSG00000196305_ENST00000443024|hu_hu|hu_hu_hu_mus_False|68_78 (ssRNA)
RNA: B4 RNA with C63A
B7: chr3:32582686:32582687:-_ENSG00000144635_ENST00000273130|hu_hu|FALSE|FALSE (ssRNA)
RNA: GGGAGUUCUACAGUCCGACGAUCUCUCUGGGGAGAAGCCGGGAAGUCUUCUCCUGGCUCUACAUAUUCUUGGAAGUCUCUAAUCAACUUUUGUUCCAUUUGUUUCAUUUCUUCAGGAGGGAUUUUCAGUUUGUCAACAUGUUCCAACAGAGGAUUGAGCAUCA
B8: chr1:185277986:185277987:-_ENSG00000116679_ENST00000392007|hu_mus|motif|central (ssRNA)
RNA: GGGAGUUCUACAGUCCGACGAUCCUGCUUGACUCGGUCCAUCUUCAGCUUCUUGGCUGCAGAAUAAACAUCUUUUACGGAUUCCUUAUCAGCUUUCAACUGAGCCGUGUAUGCAUAAUUCAGCAAGACUUCAACAGCUUCUGGCAACAGAGGAUUGAGCAUCA
B9: chr6:57672499:57672500:+_ENSMUSG00000062190_ENSMUST00000050077|mus_mus|FALSE|FALSE (ssRNA)
RNA: GGGAGUUCUACAGUCCGACGAUCUCGAAGCAGGUAGGUCUGGUCACCAGUGACCCGGUACAGCUGCAGGUACAAAAGUGCUAUGCCUGUCCAACCAGUAUAUGCAGAGCAGUCAUGAGGGUCCGCUGUCUUCAGUCCUUCCUCCAACAGAGGAUUGAGCAUCA
B10: chr18:48442549:48442550:+_ENSG00000082212_ENST00000321341|hu_mus|motif|central (ssRNA)
RNA: GGGAGUUCUACAGUCCGACGAUCAAUUGAUCUAACAUGACCUCUGUCUGAGAUUGAAAUAAACAAUCCCUUAGGUCUCCGGAAGAUGUGCCCAUAUUGACAGCAGGCAAGACCAACUGUUGGCGUGUACACAAUCGGCAUCAGCAACAGAGGAUUGAGCAUCA
B11: chr1:235505951:235505952:+_ENSG00000152904_ENST00000391855|hu_hu|FALSE|FALSE (ssRNA)
RNA: GGGAGUUCUACAGUCCGACGAUCUUUAUAGGCUUUAGCUUCAAGCUCUUUAAGGGUAUUACGAGUGUAUUCAAAAGAACCUACAUCCUCAAGAUAAUGUACACAGUAUUUUUUUAUAUCUAUGUUUUCUGUUCUCUGGCGCAACAACAGAGGAUUGAGCAUCA
B12: chr3:176740097:176740098:-_ENSG00000177565_ENST00000430069|hu_mus|motif|central (ssRNA)
RNA: GGGAGUUCUACAGUCCGACGAUCUGUUUUGUAUACCACAAAAGGAGGCACUUUCAGUAUCUGCAAAAGGUGUUUAGUCCGGAAACAUACUCACCUAGAGGAUAACUCAGGAAAACAAUCUGUUACACUCUAAGACCUACUCCACAACAGAGGAUUGAGCAUCA
B13: 123694707_123702949_1236_CDS_ENSG00000051825_ENST00000606320|human|control|control (ssRNA)
RNA: GGGAGUUCUACAGUCCGACGAUCUCCUGUUCCUGAAUCAGACAUCCAAGCAUUUGGAGUUUCAUCUGGUUUACUGAGGUAAAAAGCACGAGGAUGUGUAGCAGCAGCAAAAUCAGAUUUCUCAAUUGGUGUCUUCUUACUUUGCAACAGAGGAUUGAGCAUCA
B14: chr1:205685097:205685098:-_ENSG00000069275_ENST00000367142|hu_mus|FALSE|FALSE (ssRNA)
RNA: GGGAGUUCUACAGUCCGACGAUCUGUUACACCUAACUGCUGAGCACCGGUUUCCAGUUGAGUCACAUUAAAUGUGUUCCUGUUUGCAUACACGAUUUGAAGGGAAGACCAGAGUGUUAUAAACCACUAAAAAAAAAAGUGAAACAACAGAGGAUUGAGCAUCA

Numbering of substitutions follows the chain as printed. This is one part of the list.

The results in this text go back to article PMC12136788.

The experiment has as its target T1, UNK ZnF1-3. The experiment is described as follows: nsRBNS (natural sequence RNA bind-n-seq); RBNS binding buffer (assumed for nsRBNS): 25 mM Tris pH 7.5, 150 mM KCl, 3 mM MgCl2, 0.01% Triton X-100, 500 ug/ml BSA, 20 U/ml SUPERase-In, 4 C; UNK is unkempt and MSI1 is Musashi-1; names of the RNAs are library labels; protein concentration not given here; high values mean tight binding.
Molecule B1 had a binding signal of 0.8 enrichment R.
B2 came in with a binding signal of 0.89 enrichment R.
In the case of B3, the binding signal turned out to be 2.19 enrichment R.
Turning to B4, the binding signal is 1.34 enrichment R.
As for B5, the figure is 0.834 enrichment R.
Regarding B6, the binding signal stood at 1.34 enrichment R.
In turn, B7 had a binding signal of 0.678 enrichment R.
As to B8, the binding signal was determined as 0.805 enrichment R.
The molecule B9 showed a binding signal of 0.892 enrichment R.
For B10, the binding signal stood at 0.967 enrichment R.
Molecule B11 showed a binding signal of 0.426 enrichment R.
As for B12, the figure is 1.21 enrichment R; as for B13, 1.14 enrichment R; as for B14, 1.84 enrichment R.
